The values that follow come from the supplement of paper PMC12632987.

Over roughly 2,300 sequences, “median log2 fold change of GCK-ALFA target abundance (FLAG IP / Myc IP barcode read proportion)” has its median near 0.095; the lowest 2% begin near -0.47. This is one part of the list.

B1: LC3A_3_1424 (protein)
chain: MEELEEEARRVLEEAGFSEEAIEAVLELVRKALEAGKEEEVKELIEVLKKAKNVSSEEVLEAAERALRLIEEEGVSMEEALEYFISELRVLIEEKEIIEL
B2: LC3A_28_1287 (protein)
chain: SEIEESIKKALEEAKKAVEKGESTVIEINVPGNATQEEIEKVIEALEEIAEILKDVPNQTIVINVGGGVPQEHIDKLLDKAEEIEKKYPNVTVIIALDEE
B3: LC3A_28_1133 (protein)
chain: SAAVAAAKAQIDADAAADKNEKEVFLTVNISGTVTVEEARAIMAHVAEVVEKLKDKERIDVVVNFEEPVSQEVLDTILDGGDELEEKFPNVNVYVALPEG
B4: LC3A_127_198 (protein)
chain: EEKELLEKLIELIEKAIEAVDQIKEKGQKARDEAIKLLKEALKLLEKIPELKESAEDLKQAIKLLEQLKDLSPAEQEEAIDHIKMLLDGVLIEVESKLLE
B5: LC3A_147_463 (protein)
chain: KLYEVTLDILVKDLTEEMKKDFEAMAEEIKKAVPNAKVELKFETDPEDPSETLVTLTVTVETEEDAEKVLDLVSEKMEEFEKKYSDQVIASMISREEIEL
B6: LC3A_78_2088 (protein)
chain: MVTIIIASSEETKKYAEEIAKKRTDADKVIVVLKEDLEKVLEEYKDEEEIEVIIVAKTEEEALELEEEVKKLLSDYKQSSIIEIDEETGIYTSHILAEKK
B7: LC3A_147_490 (protein)
chain: ARVDVDVLVKGKEAAEEIIEEVKKIVEEEKKKGVKVELEVKVEEIEPGIYYVEIKITVTAETPEEAMKAAREIEKKIDEIIEKNKERTLAALISIEEIER
B8: LC3A_17_548 (protein)
chain: MEELRKEIEELLKKLEELIKELKKYDPEAAKKLEKKAEEARKLLEEGKLREAAELLEEIARELSEVFDELEPKYGNEMSVKSMEASGLELEAIGILLKLE
B9: LC3A_28_1317 (protein)
chain: GSIEKELEKARKEAEEAAAKGEDILLEIKITGSTTVEEAEEMMEELEKIAKKYAPTHKISIIIDVDGSVSQEVIDLIAEKGEEIEEKYPNVTVIIALDEN
B10: LC3A_28_781 (protein)
chain: NALRENIERALEEARKAAERGEEVTLEITIPATATQEDIELVIKALEEIAELSEKMKSVSIVIDIEAGVPQEHIVLLSEKGDELSKRNPKVTVVFALEEP
B11: LC3A_free_46_2391 (protein)
chain: IEGEIDLLLKGATEEQVKELAEYAVEKIKELAEKKGINVEIEVEIEKLEDGDYYIKITVKSDSKDENKVLDILDETEEAIEEKAKELGIKVSSIISVSKK
B12: LC3A_free_46_2339 (protein)
chain: YKVEVTVDTLAAPKEKVEEFVEKLVKGAKEIAKELGGEIKIEVEFFENEDGTWSAEITIEIKVETEEKAKEAAEKLGKKIDELDEEYGIVGMVSIEIIKE
B13: LC3A_free_46_2302 (protein)
chain: YKAKIDIDIGGLNEEETKKLVEELVEEFKKIAEELGAEIEIEVEITTDEEGETFAKINITIKAKDKETLEKAVTKIIDKVDELVKKTGAAALISVEFEEE
B14: LC3A_147_457 (protein)
chain: KKYVISVDVLFRNDPALADEVEKKLEEIAKKYGGKVKVERQEEQVTPTTTEYFLHVDITFEDKEKAQKALDEVSALLDATAAAHPDSFVGSMISFDEEEE
B15: LC3A_3_1479 (protein)
chain: MAAERAATLAELRAAGASEETLAAVAAALDALEAKGYEGAARTFLEEMRRLAGEPDETLLAIAELALELVETESLSEEELSARIREIAEDVSGIEELDEE
B16: LC3A_132_267 (protein)
chain: SEELFEEALEELKEILDKIVDLLKAGKDPSPAITELYNTALEYSEKLSLEETEELVEKTIEYAEKLFAERLDPNDVEARRTLDIIEMLLEGVLIEKELRS
B17: LC3A_28_1027 (protein)
chain: SAAEKAIEKAREEARKQKAEGKDIYVTIEVTSSTTLEDAKTIVEGIREIVEEFKDEKNINIIIDVERGVSQEVIDTLADGAEEIEKEYPNVNIIIALEEE
B18: LC3A_127_186 (protein)
chain: EVEKLAEELIKKLEEAIDELDKPDPDKEKIKKLLEEAKKLAEELVKLDPRFKPVLEDIEKAIELFKQYLAAPPEEQEALREHLQMLLDGAIIEVESLLLK
B19: LC3A_3_1668 (protein)
chain: GEEKLKELLKWLKEEGKSEEVLEAVREALEALIEKGYFEAADTFIELMKEMKDLSDELLLDFANDVLELVKTEDIDEETLTKKIKEIARVIRLEEEIEEL

In this test the target is MAP1LC3A, Q9H492. As to the kind of experiment: median log2 fold change of GCK-ALFA target abundance (FLAG IP / Myc IP barcode read proportion) (log2 ratio); each designed protein is fused to an ALFA-tag nanobody in HEK293 cells to bring the named protein to FLAG-tagged glucokinase (GCK); Myc marks an untargeted standard; higher = target protein stabilised (more abundant). The settings on record: target protein: 3xFLAG-MCP-GCK-ALFA reporter; HEK293 landing pad (RPLP). The method in brief:
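An ALFA-nanobody-fused binder library was recombined into HEK293 landing-pad cells and induced with 2 μg mL^−1 doxycycline. Cells were transfected with a plasmid expressing a FLAG-tagged target and a Myc-tagged standard. After 48 h, lysates underwent anti-FLAG and anti-Myc immunoprecipitation, and circular RNA barcodes were reverse transcribed, amplified and sequenced. Target abundance is the per-binder median log2 ratio of FLAG to Myc barcode read proportions. Barcodes needed ≥10^−7 proportion in both replicates, binders ≥3 barcodes per replicate, and a 10^−6 pseudocount was added; the two replicates were pooled.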
For B1, the “median log2 fold change” value stood at 0.16. As for B2, the figure is -0.0742; as for B3, -0.076; as for B4, 0.256.

As for B5, the “median log2 fold change” value was -0.0531. B6: the “median log2 fold change” value worked out at 0.188.

Regarding B7, the “median log2 fold change” value came out at 0.103. As for B8, the “median log2 fold change” value is 0.204. In the case of B9, the “median log2 fold change” value is 0.146. For B10, the “median log2 fold change” value amounted to 0.149. For B11 the value was -0.0207.

As for B12, the “median log2 fold change” value was 0.182. Turning to B13, the “median log2 fold change” value is -0.169.

Regarding B14, the “median log2 fold change” value stood at 0.352.

For B15, the “median log2 fold change” value worked out at 0.281. As for B16, the “median log2 fold change” value is -0.528. Consider B17, for which the “median log2 fold change” value came to 0.173. For B18 the value was 0.0193; for B19, 0.133.
